{"source": "PubChem BioAssay AID445", "about": "(National Center for Advancing Translational Sciences (NCATS), 2006)", "note": "The campaign covered roughly 110,000 compounds. About 40 (0.04%) were called active. This list was built around the results that the source calls inconclusive (neither active nor inactive); the mix of calls is not that of the screen. Calls follow the shape of the dose curve; as a rule, active = well fitted curve in the direction sought with a large enough effect in the signal ratio (not every such curve was filed as active); inconclusive = small, poorly fitted or top-dose-only effect, or a change in a side signal; inactive = flat fitted curve, though single readings scatter; the % refers to the signal ratio.", "data": [{"test": "IkB Signaling;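 also: 0% = basal untreated cells and 100% = reference inhibitor full response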", "settings": "ABC-DLBCL IkBa-CBG/CBR dual luciferase ratio (green luciferase fused to IkBa over red control in OCI-Ly3 lymphoma cells), 4 h; IkBa stabilization activation: at 57.1 µM (top of the series), scaled: untreated 0%, proteasome inhibitor 100% unless noted", "summary_of_the_method": "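In this assay, an IκBα–CBG68 fusion accumulates when IKK-driven degradation is blocked; native CBR normalizes for cell number. OCI-Ly3 cells were treated 4 h with compound and doxycycline, then green and red light read after Chroma-Glo addition.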", "values": [{"smiles": "COc1ccc(N(C(=O)c2ccccc2C)S(=O)(=O)c2ccc(C)cc2)cc1", "IkBa stabilization activation": "inconclusive: 3.9% [signal inhibitor]"}, {"smiles": "Cc1ccc2c(c1)c1c(c(=O)n(-c3ccccc3)c(=O)n1CC(=O)NCCC1=CCCCC1)n2C", "IkBa stabilization activation": "inconclusive: 1.29% [signal inhibitor]"}, {"smiles": "CCOC(=O)C1=C(CN2CCN(c3cc(C)ccc3C)CC2)NC(=O)NC1c1ccccc1", "note": "(stereo not drawn)", "IkBa stabilization activation": "inconclusive: 2.5% [signal inhibitor]"}, {"smiles": "CCOc1cc2c(C#N)c(N3CCOCC3)nc(N)c2c(N)n1", "IkBa stabilization activation": "inactive: -0.675%"}, {"smiles": "Cc1ccc(CCNC(=O)c2cc3sccc3n2Cc2ccc(Cl)cc2)cc1", "IkBa stabilization activation": "inconclusive: 1.33% [signal inhibitor]"}, {"smiles": "CCN1C(=O)c2ccccc2Sc2ccc(NC(=O)Nc3ccc(C(C)=O)cc3)cc21", "IkBa stabilization activation": "inactive: 0.435%"}, {"smiles": "CC[C@H](C(=O)c1cccs1)C(O)(C(F)(F)F)C(F)(F)F", "IkBa stabilization activation": "inactive: 0.589% [at 11.4 µM, scaled: untreated 0%, proteasome inhibitor 100%]"}, {"smiles": "c1cncc(-c2cc(NCc3cccs3)ncn2)c1", "IkBa stabilization activation": "inactive: -2.04% [at 11.4 µM, scaled: untreated 0%, proteasome inhibitor 100%]"}, {"smiles": "CC1CCCCN1C(=O)CSc1nc2ccccc2nc1Cc1ccc(Cl)cc1", "note": "(stereo not drawn)", "IkBa stabilization activation": "inconclusive: 5.86% [signal inhibitor]"}, {"smiles": "CCOc1ccc(C(=O)N2CCN(Cc3cc(=O)n4nc(-c5cccc(OC)c5)sc4n3)CC2)cc1", "IkBa stabilization activation": "inconclusive: -0.245% [signal inhibitor]"}, {"smiles": "Cc1cccc(NC(=O)c2ccc(F)c(S(=O)(=O)N(C)C3CCCCC3)c2)c1", "IkBa stabilization activation": "inconclusive: 3.16% [signal inhibitor]"}, {"smiles": "Cc1ccc(S(=O)(=O)Cn2nnnc2C(C(C)C)N2CCN(Cc3ccco3)CC2)cc1", "note": "(stereo not drawn)", "IkBa stabilization activation": "inactive: -0.0881%"}, {"smiles": "COc1cc(-c2nnc3sc(-c4cccs4)nn23)cc(OC)c1OC", "IkBa stabilization activation": "inactive: 3.38%"}, {"smiles": "COc1ccc(NC(=O)C(C)n2nc(C)c3c(C)n(-c4ccccc4)nc3c2=O)cc1Cl", "note": "(stereo not drawn)", "IkBa stabilization activation": "inconclusive: 0.15% [signal inhibitor]"}, {"smiles": "CCOCCCNC(=O)C(c1ccc(Cl)cc1)N(Cc1ccc2c(c1)OCO2)C(=O)c1ccccc1O", "note": "(stereo not drawn)", "IkBa stabilization activation": "inconclusive: 1.1% [signal inhibitor]"}, {"smiles": "O=C(NCc1ccc2c(c1)OCO2)C1CCN(S(=O)(=O)c2ccc(Br)s2)CC1", "IkBa stabilization activation": "inconclusive: 9.57% [signal inhibitor]"}, {"smiles": "COc1ccc(-c2nc(S(=O)(=O)c3ccccc3)c(N3CCCCC3)o2)cc1", "IkBa stabilization activation": "inconclusive: 0.0663% [signal inhibitor]"}, {"smiles": "CCN(Cc1nc(-c2ccc(OC)cc2)oc1C)S(=O)(=O)c1ccc(Cl)cc1", "IkBa stabilization activation": "inconclusive: 2.42% [signal inhibitor]"}]}]}
